The values below come from the supplement of paper PMC10338343.

± gives the standard deviation. Only a part is listed here, and it is no random draw.

The first experiment relates to MIWI (PIWIL1) piRISC loaded with L1MC piRNA (30 nt). In words: pre-steady-state target cleavage rate (min^-1); MIWI and MILI are mouse PIWI proteins and EfPiwi is from a freshwater sponge; tags in brackets are library labels; higher = faster piRNA-guided slicing of the target. To be noted: guide: L1MC piRNA 5'p-UAACUAAAUACUAUGCAAGCUGUAGGUCCU; auxiliary factor: 500 nM mouse GTSF1. On the procedure:
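Cleave-'n-Seq: a library of target RNAs (target site embedded in constant flanks, ACAGCATTCCGCGTTAGTGATATCCG... 5' flank; DNA-blocked outside the site) at 0.1 nM was incubated with 1 nM active mouse MILI or MIWI piRISC (synthetic 5'-monophosphorylated piRNA guide) with or without 500 nM mouse GTSF1 at 33 °C for 1 min to 16 h. Uncleaved targets were sequenced and normalised to non-target controls, and the pooled three trials were fitted to a burst-and-steady-state model to give the pre-steady-state cleavage rate (min^-1; k3 is constrained to at most 1e-4). Sequence is the target site only; target names encode pairing extent (gX:gY) and contiguous / 1-mismatch / 2-mismatch / bulge geometry. Fits with R² ≤ 0 are excluded.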
Turning to UCCUGGAUCAGCUUGCAUAGUUAAUAGUUA, the “pre-steady-state target cleavage rate” value was 0.0217 ± 0.0054. Turning to UCCACUACAGCUUGCAUAGUAUUUAGUUA, the “pre-steady-state target cleavage rate” value was 1.07 ± 0.044.

As for UCCUGGAACAGCUUGCAUUGUAUUUAGAAA, the “pre-steady-state target cleavage rate” value was 0.205 ± 0.034. UCCUCCUACAGGAAGCAUAGUAUUUAGUUA: the “pre-steady-state target cleavage rate” value worked out at 1.04 ± 0.065.

As to UCCUGCUACAGGUUGCAUAGUAAUUAGUUA, the “pre-steady-state target cleavage rate” value worked out at 0.851 ± 0.08. Consider UCCUCCUACAGGUAGCAUAGUAUUUAGUUA, for which the “pre-steady-state target cleavage rate” value amounted to 1.13 ± 0.066. Still for that read-out and setting: the same measure for UCCUGGAUGAGCGUGCAUAGUAUUUAGUUA: 0.766 ± 0.038; for UCCUGGUAGAGCUUGCAUAGUAUUUACUUA: 0.0611 ± 0.015. Regarding UCCUGGAUCAGCUUGCAUAGUCAUUUAGUUA, the “pre-steady-state target cleavage rate” value amounted to 0.0087 ± 0.0047.

Turning to UCCUCCUACAGCUUGCAUUGUAUUUAGAUA, the “pre-steady-state target cleavage rate” value is 0.312 ± 0.025. On the same count and under the same terms, the same measure for UCCUGGAUCAGGUUGCAUAGUAUUUUCAAA: 0.0415 ± 0.014. UCCUCCAACAGCUUGCAUAGUAUUUUGUUA: the “pre-steady-state target cleavage rate” value came out at 0.471 ± 0.033.

Take UCCACCUACAGCUUGCAUAGUAUAAUGUUA: the “pre-steady-state target cleavage rate” value was found to be 0.307 ± 0.031. On the same count and under the same terms, the same measure for UCCUGCUACAGCUUGCAUAGUUUUUAGUAA: 0.133 ± 0.026; for UCCUCCUUCAGCUUGCAUAGUAUUUACUUA: 0.279 ± 0.03; for UCCUGCUACACCUUGCAUACUAUUUAGUUA: 0.267 ± 0.05. Same read-out and setting: the value for UCCUGCUACAGCUUGGAUAGUAUUUAGAUA was 0.253 ± 0.034. For the sequence UCCUGGUACUCGUUGCAUAGUAUUUAGUUA, the “pre-steady-state target cleavage rate” value worked out at 0.0743 ± 0.031.

As to UCGUCCUACAGCUUGCAUACUAUUUAGUUA, the “pre-steady-state target cleavage rate” value is 0.374 ± 0.015.

As to UCCUGGAUGAGCUUGCAUAGUAUUAACUUA, the “pre-steady-state target cleavage rate” value worked out at 0.00978 ± 0.0045.

With UCGACCAACAGCUUGCUUAGUAUUUAGUUA, the “pre-steady-state target cleavage rate” value came to 1.47 ± 0.05.

The same experiment, now with this note: guide: L1MC piRNA 5'p-UAACUAAAUACUAUGCAAGCUGUAGGUCCU; auxiliary factor: none (no GTSF1).
As to UCCUGGAUCAGCUUGCAUAGUUAAUAGUUA, the “pre-steady-state target cleavage rate” value worked out at 0.00865 ± 0.0029.

On to UCCACUACAGCUUGCAUAGUAUUUAGUUA, for which the “pre-steady-state target cleavage rate” value stood at 0.0602 ± 0.0096. The same measure, in the same setting: the value for UCCUGGAACAGCUUGCAUUGUAUUUAGAAA was 0.00569 ± 0.0034; that for UCCUCCUACAGGAAGCAUAGUAUUUAGUUA was 0.00536 ± 0.0019. The same measure, in the same setting: the value for UCCUGCUACAGGUUGCAUAGUAAUUAGUUA was 0.0111 ± 0.0023; that for UCCUCCUACAGGUAGCAUAGUAUUUAGUUA was 0.00438 ± 0.0018. The same measure, in the same setting: the same measure for UCCUGGAUGAGCGUGCAUAGUAUUUAGUUA: 0.0181 ± 0.0051; for UCCUGGUAGAGCUUGCAUAGUAUUUACUUA: 0.0175 ± 0.0032. In the case of UCCUGGAUCAGCUUGCAUAGUCAUUUAGUUA, the “pre-steady-state target cleavage rate” value came to 0.00533 ± 0.0025.

For UCCUCCUACAGCUUGCAUUGUAUUUAGAUA, the “pre-steady-state target cleavage rate” value is 0.00758 ± 0.0015.

Consider UCCUCCAACAGCUUGCAUAGUAUUUUGUUA, for which the “pre-steady-state target cleavage rate” value worked out at 0.0236 ± 0.0035. Still for that read-out and setting: the value for UCCACCUACAGCUUGCAUAGUAUAAUGUUA was 0.0117 ± 0.0029; that for UCCUGCUACAGCUUGCAUAGUUUUUAGUAA was 0.00676 ± 0.0018; that for UCCUCCUUCAGCUUGCAUAGUAUUUACUUA was 0.0168 ± 0.0032. For UCCUGCUACACCUUGCAUACUAUUUAGUUA, the “pre-steady-state target cleavage rate” value is 0.0197 ± 0.0059. On the same count and under the same terms, the value for UCCUGCUACAGCUUGGAUAGUAUUUAGAUA was 0.0126 ± 0.0033; that for UCGUCCUACAGCUUGCAUACUAUUUAGUUA was 0.0339 ± 0.0064. The same measure, in the same setting: the same measure for UCCUGGAUGAGCUUGCAUAGUAUUAACUUA: 0.00409 ± 0.0028. As to UCGACCAACAGCUUGCUUAGUAUUUAGUUA, the “pre-steady-state target cleavage rate” value is 0.0416 ± 0.0081.
